This note sets out measurements from patent publication US20180273573A1, “INHIBITORS OF MENAQUINONE BIOSYNTHESIS” (Memorial Sloan-Kettering Cancer Center, priority 2015, published 2018).

Converted amounts (≈) assume the structure as drawn. Like-named read-outs stand apart in the source and are kept apart here.

Series [1] concerns the target E. coli MenE (ecMenE) (Escherichia coli, UniProt P37353). As to the kind of experiment: MenE-MenB coupled assay (enzyme inhibition, catalytic parameters). To be noted: wild-type ecMenE, substrate OSB.
Series [2] deals with B. subtilis (ATCC 6051). As to the kind of experiment: MIC, Alamar blue assay. It is filed as cell-based. To be noted: Table E5; for MIC: Bacillus subtilis, ATCC6051.
Series [3] concerns MRSA, S. aureus (ATCC BAA-1762). As to the kind of experiment: MIC, Alamar blue assay. The format is cell-based, methicillin-resistant S. aureus. As to conditions: Table E5; for MIC: Staphylococcus aureus. On the technique in general: Alamar Blue is a resazurin reagent that responds to reducing activity.
Series [4] in a line: physchem.
[5] abbreviates: with addition of exogenous menaquinone-4 (10 μg/mL), read-out: B. subtilis MIC (in parentheses).
[6] abbreviates: without menaquinone-4, read-out: B. subtilis MIC.
Setting [7] is: with addition of exogenous menaquinone-4 (10 μg/mL), read-out: MRSA MIC (in parentheses).
The mark [8] stands for this setting: without menaquinone-4, read-out: MRSA MIC.
[9] abbreviates: with addition of exogenous menaquinone-4 (10 μg/mL).

Sequence of E. coli MenE (ecMenE) (P37353 whole entry): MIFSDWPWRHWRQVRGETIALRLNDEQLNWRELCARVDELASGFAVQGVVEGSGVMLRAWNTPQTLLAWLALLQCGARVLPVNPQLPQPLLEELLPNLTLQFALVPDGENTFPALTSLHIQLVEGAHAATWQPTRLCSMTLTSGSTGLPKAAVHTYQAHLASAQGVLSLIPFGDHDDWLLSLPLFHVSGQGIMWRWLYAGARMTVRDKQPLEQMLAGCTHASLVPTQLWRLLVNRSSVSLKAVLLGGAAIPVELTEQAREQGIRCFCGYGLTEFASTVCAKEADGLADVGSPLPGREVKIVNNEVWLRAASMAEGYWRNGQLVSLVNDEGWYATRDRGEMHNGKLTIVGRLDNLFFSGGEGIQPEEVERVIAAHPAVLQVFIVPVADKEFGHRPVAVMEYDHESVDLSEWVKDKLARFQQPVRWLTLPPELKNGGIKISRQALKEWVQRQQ

Take `O=C(O)CCC(=O)c1ccccc1C(=O)O` [OSB, o-succinylbenzoate, reference compound]: the Km (commonly the substrate concentration at which the rate is half of its maximum) in series [1] (read-out: KM OSB) was found to be 1 ± 0.02 µM. Moreover, the kcat (in general, the maximal rate divided by the concentration of active sites) in series [1] came out at 0.767 ± 0.0017 s⁻¹.
Regarding `Nc1ncnc2c1ncn2[C@@H]1O[C@H](COS(=O)(=O)NC(=O)CC[C@@]2(O)c3ccccc3[C@@H](O)C2(F)F)[C@@H](O)[C@H]1O` [(1R,3R)-2, 5′-O—(N-[3″-((1R,3R)-2′″,2′″-difluoro-1′″,3′″-dihydroxy-1′″-indanyl)propanoyl]-sulfamoyl)adenosine], the minimum inhibitory concentration (MIC) in series [2] (setting [5]), in series [2] (setting [6]), in series [3] (setting [7]) and in series [3] (setting [8]) was 15.6 µg/mL (≈ 26.6 µM) in each case.
Consider `Nc1ncnc2c1ncn2[C@@H]1O[C@H](COS(N)(=O)=O)[C@@H](O)[C@H]1O` [AMS, adenosinemonosulfamate, reference compound], for which the “B. subtilis MIC (in parentheses)” value in series [2] (setting [9]) is recorded as 3.9 (3.9) μg/mL. Also, the “B. subtilis MIC” value in series [2] (without menaquinone-4) was 3.9 (3.9) μg/mL. The “MRSA MIC (in parentheses)” value in series [3] (setting [9]) was 1.9 (1.9) μg/mL. Besides, the “MRSA MIC” value in series [3] (without menaquinone-4) was 1.9 (1.9) μg/mL.
For `Nc1ncnc2c1ncn2[C@@H]1O[C@H](COS(=O)(=O)NC(=O)CC[C@]2(O)c3ccccc3[C@H](O)C2(F)F)[C@@H](O)[C@H]1O` [(1S,3S)-2, 5′-O—(N-[3″-((1S,3S)-2′″,2′″-difluoro-1′″,3′″-dihydroxy-1′″-indanyl)propanoyl]sulfamoyl)adenosine], the minimum inhibitory concentration (MIC) in series [2] (setting [5]), in series [2] (setting [6]), in series [3] (setting [7]) and in series [3] (setting [8]) was 15.6 µg/mL (≈ 26.6 µM) throughout.
`Nc1ncnc2c1ncn2[C@@H]1O[C@H](COS(=O)(=O)NC(=O)CCC(=O)c2ccccc2-c2nn[nH]n2)[C@@H](O)[C@H]1O` [Compound 105, 5′-O—(N-[4-(2-(2H-Tetrazol-5-yl)phenyl)-4-oxobutanoyl]sulfamoyl)adenosine]: the pKa (in general, the negative logarithm of the acid dissociation constant) in series [4] is 3.4.
